Measured values taken from the supplement of paper PMC4466236.
The full ranking holds about 33,000 sequences; the median of “E-score (dimensionless, -0.5 to 0.5)” is about -0.058, and the highest 2% start at about 0.35. The list shows a part of the results.

Each sequence was assayed on MvaT (assay: PBM 8-mer E-score (mean of HK and ME arrays) (E-score (dimensionless, -0.5 to 0.5)); higher = stronger relative binding preference; most listed sequences are background and not binding sites).
How it was run: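 Reported values are rank-based E-scores, taken as the mean of two universal arrays and parsed with a custom script. Each 8-mer score falls between -0.5 and 0.5. The arrays, ME and HK, were double-stranded 60-mers with a constant 25-mer primer region and a variable 35-mer region covering all 8-mers. They were probed, by an earlier protocol, with full-length P. aeruginosa MvaT carrying an N-terminal glutathione S-transferase fusion.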

| Sequence | PBM 8-mer E-score |
| --- | --- |
| GCGTAAGA | -0.112 |
| AGCCTGTA | -0.00993 |
| AACTCTGT | 0.139 |
| CGCCTACC | -0.181 |
| AAAATCCA | -0.00292 |
| GACTACCC | -0.189 |
| AATAGGCG | -0.082 |
| GCGAACTA | 0.152 |
| ACCATCAC | -0.0655 |
| GGGTACAA | -0.0488 |
| CGGCAAAG | -0.141 |
| ACGTTTCA | -0.00943 |
| CGACCGGC | -0.255 |
| AGCATTGC | -0.0493 |
| GAACCCTC | -0.275 |
| GGTTCCGA | -0.282 |
| CATAGTAC | 0.0474 |
| GTACCCAC | -0.27 |
| CTTGTAGA | -0.0623 |
| CGAACTAG | 0.0339 |
| CAGTTTCA | 0.0616 |
| CGTCTATC | -0.0975 |
| GTTTGCTA | 0.1 |
| CCACTATC | 0.0825 |
| GTAACATA | 0.329 |

| Sequence | PBM 8-mer E-score |
| --- | --- |
| CTTCCGCC | -0.27 |
| ATCATTGA | 0.12 |
| ATGAGAGC | -0.239 |
| GTATGACA | 0.0692 |
| GAACTTAA | 0.263 |
| AGGCACGC | -0.347 |
| TTAACGAA | 0.174 |
| AGAACGTG | 0.000115 |
| AATAACAT | 0.32 |
| CTTATTGC | 0.178 |
| AAGTATGT | 0.31 |
| CAGGCGCA | -0.293 |
| AACTTCGA | 0.203 |
| CTCAGATA | -0.0102 |
| AATTTACT | 0.226 |
| TAGGGTCA | -0.0417 |
| ACATCGAC | -0.138 |
| AGCAGTGC | -0.302 |
| TTGCGCAA | 0.248 |
| TAGGCGGA | -0.189 |
| CGGTGGGC | -0.161 |
| CAACCTTG | -0.16 |
| CGCATTTA | 0.156 |
| CCCAGAGG | -0.294 |
| ATCCCACC | 0.0538 |

| Sequence | PBM 8-mer E-score |
| --- | --- |
| CCCGGACG | -0.23 |
| ATCACCAA | -0.0296 |
| AGACCGCC | -0.212 |
| ATATCCCG | 0.0682 |
| AGGCGCAA | -0.173 |
| TTCCGCAA | 0.134 |
| ATCCGAAG | -0.135 |
| CCACCGTA | -0.13 |
| GAAGGCTC | -0.353 |
| CTGACGCA | -0.123 |
| AGGCTCTC | -0.227 |
| CCCTAGTC | -0.182 |
| AACTTATA | 0.415 |
| ATCAGCGG | -0.214 |
| CAGCACGG | -0.189 |
| ACGAGTAG | -0.139 |
| CACATGAA | 0.0276 |
| ATAAGAAC | 0.192 |
| TCTTCGAA | 0.00918 |
| CTAAGAAC | 0.0927 |
| ATACCAAT | 0.166 |
| AATTTGCC | 0.167 |
| CTTCGACC | -0.145 |
| TATTCTCA | 0.205 |
| AAATACGG | 0.146 |

| Sequence | PBM 8-mer E-score |
| --- | --- |
| CAATGCCG | 0.0384 |
| GATTAGCC | -0.0789 |
| ACCATTAA | 0.263 |
| ATTCCTTA | 0.123 |
| AACCCAGA | 0.0439 |
| AACTAATG | 0.312 |
| CCTGAGCG | -0.27 |
| TACGTCAA | 0.13 |
| CAGTACTC | 0.08 |
| CACACATA | 0.176 |
| AACGGTGT | -0.0275 |
| GCAGTGAA | -0.0979 |
| CTGTGCAA | -0.114 |
| CCGTGACC | -0.274 |
| GGACTACA | -0.0133 |
| GCTGATAA | 0.184 |
| CGTTCGAA | -0.108 |
| AATGCAGA | -0.0313 |
| CCCCTCGC | -0.289 |
| CATAGATC | 0.00108 |
| CGGAAAAC | 0.0835 |
| CACTCCCA | -0.0654 |
| AAACTACG | 0.246 |
| AACTAAAA | 0.345 |
| TGGTGTAA | 0.257 |

| Sequence | PBM 8-mer E-score |
| --- | --- |
| ATTACAAT | 0.322 |
| ATTCGTCG | -0.00371 |
| AACGTATA | 0.263 |
| CGCATGAG | -0.191 |
| CGATAATA | 0.301 |
| TAAATTTA | 0.414 |
| AACGTCCG | -0.181 |
| GATCACTA | -0.0628 |
| TCTTGTCA | -0.189 |
| CGTCCGTC | -0.323 |
| AGTCCGCA | 0.0621 |
| ACAAAAGA | 0.143 |
| GAGCGGTA | -0.156 |
| CTTCGTCC | -0.284 |
| AACCATCT | 0.0815 |
| AGTTTAGG | 0.162 |
| CACGATGC | -0.0641 |
| ATGGGTAC | -0.0802 |
| TAAAGCGA | 0.0135 |
| AAACGGCC | -0.128 |
| CCTGGAAA | -0.0539 |
| CCTTCGCA | -0.234 |
| GTGGAGAA | -0.123 |
| TACGCGTA | 0.102 |
| GTGATGCA | -0.0484 |

| Sequence | PBM 8-mer E-score |
| --- | --- |
| GTTCCCTA | -0.0545 |
| ACTACGAA | 0.148 |
| GCTACCTA | -0.0978 |
| ATGGCTGG | -0.212 |
| ACATCCGT | -0.0148 |
| ATCAAGGC | -0.14 |
| CCGGGGTC | -0.262 |
| GATCACCA | -0.205 |
| ACGCAACA | 0.0715 |
| CACCAGCA | -0.121 |
| CTCAGCAC | -0.246 |
| CGGGTTGC | -0.117 |
| ACCGTTTC | -0.321 |
| CTACCGTA | -0.0529 |
| AAGTCTGT | 0.0336 |
| GACCGCCC | -0.264 |
| ATACGAAG | 0.0479 |
| AAATAAAC | 0.334 |
| CCGACAGC | -0.0581 |
| AAGACGAA | 0.0457 |
| ATCTCTCC | -0.192 |
| TAATGCAA | 0.25 |
| CAAATATG | 0.264 |
| CTAACCAG | -0.152 |
| CCCTTTAG | -0.113 |

| Sequence | PBM 8-mer E-score |
| --- | --- |
| CTACTAGA | -0.0802 |
| CAGCGCTG | -0.201 |
| CCGTAGGA | -0.216 |
| GCCAACGC | -0.237 |
| GATCAATC | -0.178 |
| AAACAGGA | 0.00359 |
| ATACAAAT | 0.35 |
| GCCCCCGA | -0.384 |
| ATTTCTTA | 0.256 |
| ACTGTTGG | 0.0275 |
| AGACGAAT | -0.128 |
| CGATGAAG | -0.0628 |
| AAGCATCG | -0.112 |
| ATCTTCCG | -0.0945 |
| ACCGATCT | -0.0769 |
| TAATAGCA | 0.317 |
| ATTTAGTG | 0.17 |
| CCGCAATC | 0.0112 |
| AGAGTCTC | 0.0521 |
| CCTTAACA | 0.0962 |
| AGGGGATA | -0.11 |
| ATAGCACA | 0.00198 |
